Experimental data as given in a collection of fitness landscapes (doi:10.1126/science.1257360).
The other results are listed elsewhere or left out.

B1: PhoQ; a variant is named by its letters at X, in order, P23837 (parent)
chain: MKKLLRLFFPLSLRVRFLLATAAVVLVLSLAYGMVALIGYSVSFDKTTFRLLRGESNLFYTLAKWENNKLHVELPENIDKQSPTMTLIYDENGQLLWAQRDVPWLMKMIQPDWLKSNGFHEIEADVNDTSLLLSGDHSIQQQLQEVREDDDDAEMTHSVAVNVYPATSRMPKLTIVVVDTIPVELKSSYMVWSWFIYVLSANLLLVIPLLWVAAWWSLRPIEALAKEVRELEEHNRELLNPATTRELTSLVRNLNRLLKSERERYDKYRTTLTDLTHSLKTPLXXLQXXLRSLRSEKMSVSDAEPVMLEQISRISQQIGYYLHRASMRGGTLLSRELHPVAPLLDNLTSALNKVYQRKGVNISLDISPEISFVGEQNDFVEVMGNVLDNACKYCLEFVEISARQTDEHLYIVVEDDGPGIPLSKREVIFDRGQRVDTLRPGQGVGLAVAREITEQYEGKIVAGESMLGGARMEVIFGRQHSAPKDE

Variants of: B1
Assay: enrichment ratio after two sorts for PhoP signalling (ratio (wild type AVST 3.29)); higher = more functional
Conditions: with PhoP (E. coli)

Variant | enrichment ratio
AKAG | ≤ 0.25
WMAQ | ≤ 0.25
HHFQ | ≤ 0.25
TITK | 4.14
DHKA | ≤ 0.25
VFVN | ≤ 0.25
TVMW | ≤ 0.25
FMKK | ≤ 0.25
NLND | ≤ 0.25
FTEQ | ≤ 0.25
YGCH | ≤ 0.25
ADLA | 0.619
MIVS | ≤ 0.25
SSMP | ≤ 0.25
PRTK | ≤ 0.25
WWGF | ≤ 0.25
IHFS | ≤ 0.25
QTKS | ≤ 0.25
FRQR | ≤ 0.25
PDNT | ≤ 0.25
ARGG | ≤ 0.25
AWVE | ≤ 0.25
PWWT | ≤ 0.25
EEMV | ≤ 0.25

Variant | enrichment ratio
LDPN | ≤ 0.25
TCTT | 9.19
IGAG | ≤ 0.25
HHWH | ≤ 0.25
KETY | ≤ 0.25
FYHD | ≤ 0.25
MVGE | ≤ 0.25
TQCE | 87.9
TKFP | ≤ 0.25
SDST | 2.41
VCAF | ≤ 0.25
DMDF | ≤ 0.25
EYYS | ≤ 0.25
GHEN | ≤ 0.25
DMHC | ≤ 0.25
YSEN | ≤ 0.25
PSGN | ≤ 0.25
DFWC | ≤ 0.25
LSPG | ≤ 0.25
HYQL | ≤ 0.25
EPCH | ≤ 0.25
RERY | ≤ 0.25
TCDR | ≤ 0.25
YWVW | ≤ 0.25

Variant | enrichment ratio
STCL | 15.7
DQPS | ≤ 0.25
EDCQ | ≤ 0.25
VRPF | ≤ 0.25
YRGK | ≤ 0.25
SEVL | 8.66
PGDG | ≤ 0.25
HTVM | ≤ 0.25
ILQV | ≤ 0.25
RPDA | ≤ 0.25
PLFA | ≤ 0.25
TSQN | 4.91
LCRT | ≤ 0.25
FPHM | ≤ 0.25
YYFQ | ≤ 0.25
DTYC | ≤ 0.25
FQPI | ≤ 0.25
GQYD | ≤ 0.25
TTLC | 14.4
NEKL | ≤ 0.25
PVCN | ≤ 0.25
DEPF | ≤ 0.25
FIMP | ≤ 0.25
NARM | 0.579

Variant | enrichment ratio
HGPV | ≤ 0.25
GRSV | ≤ 0.25
MVLF | 4.35
YDWH | ≤ 0.25
AMHM | ≤ 0.25
DISN | ≤ 0.25
VMLG | ≤ 0.25
AKLE | ≤ 0.25
MWFG | ≤ 0.25
LCHW | ≤ 0.25
TEFR | ≤ 0.25
DGEG | ≤ 0.25
HSVE | ≤ 0.25
DANF | ≤ 0.25
RYGC | ≤ 0.25
LMRD | ≤ 0.25
ANVQ | ≤ 0.25
TAWH | ≤ 0.25
NPLS | ≤ 0.25
LRGD | ≤ 0.25
GFFA | ≤ 0.25
HSIL | 2.64
FCNI | ≤ 0.25
VFIN | ≤ 0.25

Variant | enrichment ratio
NSFV | ≤ 0.25
AFWM | ≤ 0.25
LRRP | ≤ 0.25
VGKY | ≤ 0.25
MQEM | ≤ 0.25
DIFD | ≤ 0.25
QHYP | ≤ 0.25
RVPF | ≤ 0.25
WERQ | ≤ 0.25
EDGP | ≤ 0.25
NHYP | ≤ 0.25
KVEF | ≤ 0.25
IKCW | ≤ 0.25
DSNN | ≤ 0.25
DHGA | ≤ 0.25
GFFT | ≤ 0.25
WYRF | ≤ 0.25
KSSV | ≤ 0.25
KFDH | ≤ 0.25
GTMG | 1.66
SWKP | ≤ 0.25
HTWR | ≤ 0.25
EYGS | ≤ 0.25
YKSA | ≤ 0.25

Variant | enrichment ratio
FPEM | ≤ 0.25
SWNG | ≤ 0.25
WDTQ | ≤ 0.25
ICIE | ≤ 0.25
THIR | ≤ 0.25
RNAG | ≤ 0.25
WLHS | ≤ 0.25
NRRY | ≤ 0.25
KYID | ≤ 0.25
GSKA | ≤ 0.25
DEDP | ≤ 0.25
VSTC | 0.337
MFGF | ≤ 0.25
SVGF | 9.01
RTKI | ≤ 0.25
QMAM | 0.936
AHTH | ≤ 0.25
NDDQ | ≤ 0.25
GICK | 9.7
FLLR | ≤ 0.25
YDDV | ≤ 0.25
AYER | ≤ 0.25
FSFS | ≤ 0.25
AHTN | ≤ 0.25

Variant | enrichment ratio
MDPE | ≤ 0.25
IAYM | ≤ 0.25
QGHL | 18.3
GMPN | ≤ 0.25
DGDA | ≤ 0.25
EPRM | ≤ 0.25
GDQC | ≤ 0.25
GIHY | ≤ 0.25
TGNH | 11
WTAD | ≤ 0.25
SHDV | ≤ 0.25
VLAM | ≤ 0.25
QHCL | ≤ 0.25
LETL | ≤ 0.25
ARYI | ≤ 0.25
LHVW | ≤ 0.25
AFDD | ≤ 0.25
MPVR | 0.407
DLTQ | ≤ 0.25
GKLG | ≤ 0.25
VLHS | ≤ 0.25
DLIE | ≤ 0.25
RHTP | ≤ 0.25
KYPQ | ≤ 0.25

Variant | enrichment ratio
AFWH | ≤ 0.25
VWYT | ≤ 0.25
QHIP | ≤ 0.25
EGTY | ≤ 0.25
NDEA | ≤ 0.25
LLAT | ≤ 0.25
MPCN | ≤ 0.25
SDGR | ≤ 0.25
QLFC | ≤ 0.25
LKWY | ≤ 0.25
KFGD | ≤ 0.25
GYFK | ≤ 0.25
NIYA | ≤ 0.25
LPFM | 0.322
KGSM | ≤ 0.25
QSYS | 7.02
NREC | ≤ 0.25
APHM | ≤ 0.25
HAQR | ≤ 0.25
WYGN | ≤ 0.25
SDWD | ≤ 0.25
SIFW | ≤ 0.25
MIRF | ≤ 0.25
MSQG | ≤ 0.25

Variant | enrichment ratio
EPIY | ≤ 0.25
ESWR | ≤ 0.25
WVFK | ≤ 0.25
SIYA | 0.309
IKNQ | ≤ 0.25
LGEL | ≤ 0.25
FHNG | 0.618
LMSD | ≤ 0.25
DMIR | ≤ 0.25
HSLK | ≤ 0.25
QPIS | ≤ 0.25
CDYS | ≤ 0.25
DGAN | ≤ 0.25
ELYC | ≤ 0.25
KKIG | ≤ 0.25
PRSP | ≤ 0.25
RGVW | ≤ 0.25
RDNM | ≤ 0.25
EIYK | ≤ 0.25
WRAL | ≤ 0.25
PYHT | ≤ 0.25
QAIL | ≤ 0.25
TCPK | ≤ 0.25
KDQY | ≤ 0.25

Variant | enrichment ratio
YYGA | ≤ 0.25
YATT | ≤ 0.25
MRPH | ≤ 0.25
QKTS | ≤ 0.25
FIKQ | ≤ 0.25
FPEV | ≤ 0.25
FYDT | ≤ 0.25
TTPR | ≤ 0.25
FVCT | ≤ 0.25
WFAD | ≤ 0.25
NDCC | ≤ 0.25
RCMK | ≤ 0.25
MLTD | ≤ 0.25
IDSM | ≤ 0.25
PMNG | ≤ 0.25
KPIL | ≤ 0.25
PIQQ | ≤ 0.25
AKMW | ≤ 0.25
RKVN | ≤ 0.25
YHGN | ≤ 0.25
QMPL | ≤ 0.25
LCHS | ≤ 0.25
VTCV | ≤ 0.25
LFHD | ≤ 0.25

Variant | enrichment ratio
QKHF | ≤ 0.25
WPRP | ≤ 0.25
GCSK | ≤ 0.25
VSMI | 7.55
HPWD | ≤ 0.25
FRVV | ≤ 0.25
PMEN | ≤ 0.25
KNVI | ≤ 0.25
NAMI | ≤ 0.25
SVCY | 6.53
GHMV | ≤ 0.25
VCGW | ≤ 0.25
WSMF | ≤ 0.25
WLGA | ≤ 0.25
LITI | ≤ 0.25
DICF | ≤ 0.25
RPFN | ≤ 0.25
SGRQ | ≤ 0.25
HRYQ | ≤ 0.25
AKRG | ≤ 0.25
FQPL | ≤ 0.25
YMMQ | ≤ 0.25
HCAM | ≤ 0.25
PWCK | ≤ 0.25

Variant | enrichment ratio
IKLE | ≤ 0.25
TFAI | 5.05
SQGV | 7.29
VFCA | ≤ 0.25
HDSA | ≤ 0.25
RDYA | ≤ 0.25
GFGP | ≤ 0.25
NIHG | ≤ 0.25
WMYS | ≤ 0.25
VWQI | ≤ 0.25
LSNK | ≤ 0.25
EGGL | ≤ 0.25
NQRL | ≤ 0.25
MCPF | ≤ 0.25
HREM | ≤ 0.25
LAGK | ≤ 0.25
VWKT | ≤ 0.25
RCSY | ≤ 0.25
QLLY | ≤ 0.25
ASGD | ≤ 0.25
TWGV | ≤ 0.25
PADW | ≤ 0.25
ADAP | ≤ 0.25
TISY | 3.76

Variant | enrichment ratio
EPLT | ≤ 0.25
PGMF | ≤ 0.25
FYHF | ≤ 0.25
VLWF | ≤ 0.25
AGMT | 1.71
PYPG | ≤ 0.25
YRPM | ≤ 0.25
VSVC | ≤ 0.25
YVID | ≤ 0.25
LSGD | ≤ 0.25
IKCM | ≤ 0.25
TEVR | ≤ 0.25
EICG | ≤ 0.25
VYMR | ≤ 0.25
MSIH | ≤ 0.25
AIAM | 6.08
GRFD | ≤ 0.25
DLDA | ≤ 0.25
